Test results reported in PubChem BioAssay (NCATS).
Where “and” joins values, the source holds several entries; their conditions need not be identical. Equal entries are not always repeated. Inconclusive results, whose numbers are uncertain, are shown with a selection of clear calls. For some assays here: Where the call is inconclusive, the potency comes from a doubtful curve fit. For some assays here: “Side channel” marks fits to a control or component signal instead of the main read-out. Calls of active or inactive are those of the source. Unless noted, calls follow the shape of the dose curve; as a rule, active = well fitted curve in the direction sought with a large enough effect; inconclusive = small, poorly fitted or top-dose-only effect, or another doubt; inactive = no such curve, though single readings can be large; an effect the other way counts as inactive or inconclusive.

Experiments:
[1] = AP1 Signaling Pathway (AID 357; active = well fitted curve in either direction with a large enough effect, not every such curve was filed as active; inconclusive = small, poorly fitted or top-dose-only effect, or another doubt;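 also: ME-180 reporter cells stimulated with EGF at its EC50 level; top concentration of the series differs between compounds; % is scaled to controls: 0 for no effect and ±100 for the full control effect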); details: ME-180 AP-1-bla reporter, EGF-induced, beta-lactamase ratio, 5 h; at 38 µM (top of the series)
How it was run: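 First, ME-180 AP-1-bla cells were cultured overnight at 37 °C in low-serum Opti-MEM. Next, titrated compounds with EC50 EGF were incubated 5 hours. Finally, CCF4 was added for 2.5 hours and the 460/530 nm ratio recorded.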

[2] = NFAT Signaling Pathway (AID 444; active = well fitted curve in either direction with a large enough effect, not every such curve was filed as active; inconclusive = small, poorly fitted or top-dose-only effect, or another doubt;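 also: carbachol stimulus at about its EC50 of 1 µM final; % is scaled to controls: 0 for no effect and ±100 for the full control effect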); details: Jurkat NFAT-bla M1, carbachol, beta-lactamase ratio, 5 h; at 38 µM (top of the series)
How it was run: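 Jurkat cells carrying an NFAT-driven β-lactamase reporter and co-transfected muscarinic M1 receptor were treated with compound plus carbachol (1 uM final, an EC50 level) for 5 h at 37 °C. CCF4 loading followed for 1 h at RT; 460/530 nm ratio gave %activity.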

[3] = qHTS Assay for Identification of Small Molecule Agonists for Hypoxia Response Element Signaling Pathway (AID 914; active = well fitted activation curve with a large enough effect in the signal ratio, with a control signal flat, not every such curve was filed as active; inconclusive = small, poorly fitted or top-dose-only effect, or effect the other way, or a change in a side signal; the % refers to the signal ratio; also: potency is read from the fitted curve at half-maximal effect); details: ME-180 (cervical carcinoma) HRE-bla reporter, beta-lactamase ratio, CoCl2, 17 h; activation: active compounds read high
How it was run: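 Reporter activity (beta-lactamase, CCF4 460nm/530nm ratio) in HRE-bla ME-180 cells is recorded after 17 h compound exposure with EC50 CoCl2 at 37 degrees Celsius. AC50 values come from titration data.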

[4] = qHTS Assay for Identification of Small Molecule Agonists for Thrombopoietin (TPO) Signaling Pathway (AID 917); also: potency is read from the fitted curve at half-maximal effect
How it was run: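 IL-3-dependent murine pro-B Ba/F3 cells, stably transfected with human TPO receptor and GpIIb-promoter luciferase, are incubated 24 hrs at 37 C with test compound and 26 pM TPO; luciferase signal is read after 10 min at room temperature.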

[5] = biological target: Muscarinic acetylcholine receptor M1 (Rattus norvegicus) (UniProt P08482); test: qHTS Assay for Antagonists of Acetylcholine Muscarinic M1 Receptor: Kinetic Measurement of Intracellular Calcium Response (AID 943); also: potency is read from the fitted curve at half-maximal effect; nearly all actives have a fitted effect of over 75% in size
Chain of UniProt P08482 (P08482 whole entry, looked up): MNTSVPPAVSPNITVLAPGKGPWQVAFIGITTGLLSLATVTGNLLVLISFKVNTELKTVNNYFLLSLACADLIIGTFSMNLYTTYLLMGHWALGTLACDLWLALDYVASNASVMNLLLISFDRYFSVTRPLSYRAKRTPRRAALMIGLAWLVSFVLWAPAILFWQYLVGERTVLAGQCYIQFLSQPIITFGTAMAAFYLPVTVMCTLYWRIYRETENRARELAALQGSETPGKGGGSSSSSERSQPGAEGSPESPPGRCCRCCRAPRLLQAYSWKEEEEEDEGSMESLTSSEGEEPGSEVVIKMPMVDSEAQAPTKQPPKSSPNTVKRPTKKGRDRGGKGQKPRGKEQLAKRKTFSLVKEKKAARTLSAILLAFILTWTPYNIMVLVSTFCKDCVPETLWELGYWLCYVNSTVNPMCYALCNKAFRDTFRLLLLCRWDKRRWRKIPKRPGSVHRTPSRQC
How it was run: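 CHO cells expressing rat M1 receptor, Fluo-4 loaded, preincubated 10 min with compound, then stimulated with EC80 carbachol (100 nM final). Kinetic calcium fluorescence over 4 min; response taken as peak over basal signal.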

[6] = biological target: Muscarinic acetylcholine receptor M1 (Rattus norvegicus) (UniProt P08482); test: qHTS Assay for Antagonists of Acetylcholine Muscarinic M1 Receptor: Measurement of IP-One Response (AID 944); also: nearly all actives have a fitted effect of over 75% in size
[7] = qHTS Assay for Lipid Storage Modulators (AID 1519; calls by dose curve; also: % is scaled to controls: 0 for no effect and ±100 for the full control effect); details: Drosophila S3 cells, BODIPY lipid droplet/cell ratio, laser cytometry, cells loaded with oleic acid; activity change, negative = inhibition: at 57.5 µM (top of the series) unless noted
How it was run: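 Cells seeded at 5,000 per well were treated with compounds over a concentration series and loaded with oleic acid (400 uM, as added). Lipid droplet fluorescence (488 nm excitation, 500-530 nm channel) was read by laser-scanning cytometry and normalized to 20 uM Triacsin C.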

[8] = biological target: Endonuclease 4 (Escherichia coli (strain K12)) (UniProt P0A6C1); test: Counterscreen for APE1 Inhibitors: qHTS Validation Assay for Inhibitors of Endonuclease IV (AID 1708); also: potency is read from the fitted curve at half-maximal effect
How it was run: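 Concentration-response counterscreen run identically to the APE1 assay: 15 min room-temperature preincubation of 2 nM enzyme with compound, reaction started with 50 nM quenched abasic DNA, progress taken from kinetic fluorescence.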

[9] = qHTS for differential inhibitors of proliferation of Plasmodium falciparum line W2 (AID 1883); details: Potency: Plasmodium falciparum W2 proliferation inhibition;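 also: potency is read from the fitted curve at half-maximal effect; parasites grown with compound for 72 h before lysis and staining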
[10] = biological target: RecQ-like DNA helicase BLM (Homo sapiens) (UniProt P54132); test: qHTS Validation Assay for Inhibitors of Bloom's syndrome helicase (BLM) (AID 2364); also: potency is read from the fitted curve at half-maximal effect
Chain of UniProt P54132 (P54132 whole entry, looked up): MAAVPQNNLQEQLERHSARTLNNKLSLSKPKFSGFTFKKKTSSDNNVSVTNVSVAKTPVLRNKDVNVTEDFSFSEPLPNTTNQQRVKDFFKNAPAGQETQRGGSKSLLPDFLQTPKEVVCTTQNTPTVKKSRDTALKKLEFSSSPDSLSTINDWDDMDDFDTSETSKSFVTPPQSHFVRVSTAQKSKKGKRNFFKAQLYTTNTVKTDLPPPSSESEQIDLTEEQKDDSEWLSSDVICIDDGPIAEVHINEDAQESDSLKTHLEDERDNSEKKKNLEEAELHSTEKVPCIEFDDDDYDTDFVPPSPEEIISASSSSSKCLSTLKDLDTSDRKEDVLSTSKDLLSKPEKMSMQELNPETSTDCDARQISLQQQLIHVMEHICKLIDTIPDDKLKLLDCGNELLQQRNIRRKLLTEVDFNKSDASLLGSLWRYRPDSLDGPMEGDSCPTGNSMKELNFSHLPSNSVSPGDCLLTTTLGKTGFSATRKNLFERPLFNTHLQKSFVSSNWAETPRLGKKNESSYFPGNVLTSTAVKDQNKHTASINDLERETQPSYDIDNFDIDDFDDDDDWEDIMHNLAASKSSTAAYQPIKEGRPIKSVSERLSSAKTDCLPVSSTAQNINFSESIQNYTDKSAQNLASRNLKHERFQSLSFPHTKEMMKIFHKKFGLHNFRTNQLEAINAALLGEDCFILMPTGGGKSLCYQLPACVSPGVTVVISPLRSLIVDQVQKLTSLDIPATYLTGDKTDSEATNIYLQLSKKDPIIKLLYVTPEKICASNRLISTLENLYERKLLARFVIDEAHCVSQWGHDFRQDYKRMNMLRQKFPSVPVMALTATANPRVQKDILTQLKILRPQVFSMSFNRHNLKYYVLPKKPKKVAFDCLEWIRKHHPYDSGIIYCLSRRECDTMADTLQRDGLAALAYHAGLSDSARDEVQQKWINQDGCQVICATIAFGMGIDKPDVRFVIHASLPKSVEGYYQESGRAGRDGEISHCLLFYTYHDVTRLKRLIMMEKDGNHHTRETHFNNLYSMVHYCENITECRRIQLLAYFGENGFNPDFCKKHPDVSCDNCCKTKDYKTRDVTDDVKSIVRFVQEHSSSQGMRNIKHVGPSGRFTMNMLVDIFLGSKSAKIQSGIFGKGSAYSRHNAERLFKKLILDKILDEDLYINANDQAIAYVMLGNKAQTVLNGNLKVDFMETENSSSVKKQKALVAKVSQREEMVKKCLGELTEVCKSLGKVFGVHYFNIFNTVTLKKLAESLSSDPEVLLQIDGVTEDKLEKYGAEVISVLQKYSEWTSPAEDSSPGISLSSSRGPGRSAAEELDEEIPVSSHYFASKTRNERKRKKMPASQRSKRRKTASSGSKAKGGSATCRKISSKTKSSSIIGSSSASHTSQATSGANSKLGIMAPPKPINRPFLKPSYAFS
How it was run: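 BLM 50 nM in 25 mM Tris-HCl pH 8.0, 5 mM NaCl, 2 mM MgCl2, 1 mM DTT, 0.01% Tween-20, 2.5 ug/ml poly(dI-dC); 15 min cpd preinc, RT. Start: 200 nM forked DNA + 2 mM ATP (final). TAMRA read, 2 reads 2 h apart.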

[11] = Cytometry Cell-Based qHTS for Inhibitors of the mTORC1 Signaling Pathway in MEF cells (AID 2668); also: potency is read from the fitted curve at half-maximal effect
How it was run: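 In MEFs grown in DMEM + 10% FBS, a 24 hrs compound exposure preceded imaging of phospho-rpS6 Ser235/236 by laser-scanning cytometry.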

[12] = Validation screen for small molecules that induce DNA re-replication in MCF 10A normal breast cells (AID 463097); also: potency is read from the fitted curve at half-maximal effect; nearly all actives have a fitted effect of over 60% in size
How it was run: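 Following 48 hr compound incubation (37 C, 5% CO2), MCF 10A cells receive Hoechst for 40 min at 37 C. Nuclei are then scanned (excitation 405 nm, emission 500-530 nm) for total fluorescence intensity.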

[13] = biological target: ATP-dependent 6-phosphofructokinase (Trypanosoma brucei brucei) (UniProt O15648); test: qHTS Validation Assay to Find Inhibitors of T. brucei phosphofructokinase (AID 485368); details: activity change, negative = inhibition: at 57.5 µM (top of the series); also: potency is read from the fitted curve at half-maximal effect
Chain of UniProt O15648 (O15648 whole entry, looked up): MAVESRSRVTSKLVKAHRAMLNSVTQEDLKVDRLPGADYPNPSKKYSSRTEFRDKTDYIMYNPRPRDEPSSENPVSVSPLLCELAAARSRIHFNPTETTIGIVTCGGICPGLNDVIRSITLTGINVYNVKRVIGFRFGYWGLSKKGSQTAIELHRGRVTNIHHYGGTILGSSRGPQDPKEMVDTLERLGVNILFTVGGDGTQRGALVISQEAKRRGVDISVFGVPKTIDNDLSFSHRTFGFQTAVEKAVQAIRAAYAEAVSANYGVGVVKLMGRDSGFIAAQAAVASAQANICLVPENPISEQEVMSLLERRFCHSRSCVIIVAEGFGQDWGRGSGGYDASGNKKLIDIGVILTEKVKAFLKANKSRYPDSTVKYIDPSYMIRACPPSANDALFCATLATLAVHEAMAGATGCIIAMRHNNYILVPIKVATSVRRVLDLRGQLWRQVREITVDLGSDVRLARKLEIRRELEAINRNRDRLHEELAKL
How it was run: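 Enzyme reaction in triethanolamine buffer pH 8.0 with 5 mM MgCl2, 0.01% Tween20 and 0.1% BSA; PFK 1.25 nM, F6P 0.5 mM, ATP 0.1 mM, 45 min RT. ADP quantified by ADP-Glo.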

[14] = Quantitative high throughput screen for delayed death inhibitors of the malarial parasite plastid, 96 hour incubation (AID 488745); also: potency is read from the fitted curve at half-maximal effect; nearly all actives have a fitted effect of over 70% in size
How it was run: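 Luciferase-expressing P. falciparum in erythrocytes (2% hematocrit, 0.1% parasitemia) incubated with compound for 96 h at 37 C, 5% CO2, in RPMI 1640 with 0.5% Albumax. Growth inhibition read as decreased luminescence.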

[15] = Quantitative high throughput screen for delayed death inhibitors of the malarial parasite plastid, 48 hour incubation (AID 488752); also: potency is read from the fitted curve at half-maximal effect; nearly all actives have a fitted effect of over 65% in size
How it was run: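 Erythrocytes infected with firefly luciferase-expressing P. falciparum (2% hematocrit, 0.1% parasitemia) cultured with compound for 48 h at 37 C, 5% CO2, in RPMI 1640/0.5% Albumax. Growth inhibition read as loss of luminescence.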

[16] = biological target: M-phase phosphoprotein 8 (Homo sapiens) (UniProt Q99549); test: qHTS Validation Assay for Inhibitors for MPP8 Chromodomain Interactions with Methylated Histone Tails (AID 488949); details: AlphaScreen MPP8 binding to H3K9me3 peptide; activity change, negative = inhibition: at 57.1 µM (top of the series) unless noted; also: potency is read from the fitted curve at half-maximal effect; nearly all actives have a fitted effect of over 55% in size
Chain of UniProt Q99549 (Q99549 whole entry, looked up): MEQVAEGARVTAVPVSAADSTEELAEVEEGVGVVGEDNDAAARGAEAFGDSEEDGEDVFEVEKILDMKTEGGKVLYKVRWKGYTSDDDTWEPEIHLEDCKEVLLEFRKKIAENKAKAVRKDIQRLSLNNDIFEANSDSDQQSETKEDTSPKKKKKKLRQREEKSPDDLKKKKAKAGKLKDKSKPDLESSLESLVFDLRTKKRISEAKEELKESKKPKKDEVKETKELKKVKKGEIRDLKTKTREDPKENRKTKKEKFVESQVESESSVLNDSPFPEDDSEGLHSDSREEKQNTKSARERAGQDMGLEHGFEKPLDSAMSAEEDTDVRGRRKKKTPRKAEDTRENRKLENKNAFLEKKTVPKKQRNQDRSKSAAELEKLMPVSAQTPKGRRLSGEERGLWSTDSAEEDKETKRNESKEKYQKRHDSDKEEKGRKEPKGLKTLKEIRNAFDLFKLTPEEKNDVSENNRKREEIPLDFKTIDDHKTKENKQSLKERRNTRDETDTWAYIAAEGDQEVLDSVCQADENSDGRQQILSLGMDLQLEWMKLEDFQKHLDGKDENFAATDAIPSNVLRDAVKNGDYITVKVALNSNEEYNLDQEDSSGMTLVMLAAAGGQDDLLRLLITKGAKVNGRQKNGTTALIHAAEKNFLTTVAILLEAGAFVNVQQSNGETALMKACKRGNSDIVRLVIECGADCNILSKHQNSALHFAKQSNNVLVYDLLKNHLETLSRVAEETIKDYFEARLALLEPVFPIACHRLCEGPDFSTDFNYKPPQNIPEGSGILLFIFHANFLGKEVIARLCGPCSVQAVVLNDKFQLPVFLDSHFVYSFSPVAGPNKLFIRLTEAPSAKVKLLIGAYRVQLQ
How it was run: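 Chemiluminescent proximity assay: histidine-tag capture via nickel acceptor beads, biotin peptide via streptavidin donor beads. Protein and peptide each at 50 nM, pH 7.4, with 30 min incubations at room temperature for complex formation, compound exposure and bead binding.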

[17] = biological target: Chromobox protein homolog 1 (Homo sapiens) (UniProt P83916); test: qHTS Validation Assay for Inhibitors of HP1-beta Chromodomain Interactions with Methylated Histone Tails (AID 488953); also: potency is read from the fitted curve at half-maximal effect; nearly all actives have a fitted effect of over 50% in size
Chain of UniProt P83916 (P83916 whole entry, looked up): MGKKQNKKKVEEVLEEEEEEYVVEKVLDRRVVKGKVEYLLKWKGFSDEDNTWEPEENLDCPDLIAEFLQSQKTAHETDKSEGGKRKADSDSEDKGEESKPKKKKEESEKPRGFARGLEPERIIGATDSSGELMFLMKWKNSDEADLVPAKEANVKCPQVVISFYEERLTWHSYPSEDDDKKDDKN
How it was run: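 HP1-beta (50 nM) preformed 30 min with biotinylated H3(1-18)K9me3 peptide (50 nM) in PBS pH 7.4, 0.01% Tween-20. Compounds added for 30 min at room temperature. Complex disruption read by AlphaScreen with streptavidin donor/nickel chelate acceptor beads (10 ug/mL each).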
Tags tell the direction and shape of the fitted curve or compound fluorescence and quenching.

Nc1ncnc2c1c(-c1ccc(Oc3ccccc3)cc1)cn2C1CCCC1
activity change, negative = inhibition [1]: active: -103% | activity change, negative = inhibition [2]: inconclusive: -103% [inhibitor] | Potency [3]: inconclusive: 31.6 µM [cytotoxic, side channel, single point] | Potency [4]: inconclusive: 12.6 µM [inhibitor, partial curve] | Potency [5]: inconclusive: 7.08 µM [inhibitor, partial curve, poor fit] | Potency [6]: inactive | activity change, negative = inhibition [7]: inconclusive: -87.6% | Potency [8]: inconclusive: 0.891 µM [inhibitor, full curve] | Potency [9]: active: 3.55 µM | Potency [10]: inconclusive: 22.4 µM [inhibitor, partial curve] | Potency [11]: inconclusive: 13.1 µM [falling, partial curve] | Potency [12]: active: 3.16 µM | Potency [13]: inconclusive: 4.26 µM [falling, full curve] | Potency [14]: active: 7.38 µM | Potency [15]: active: 9.28 µM | Potency [16]: inconclusive: 31.6 µM [inhibitor, full curve] and inconclusive: 37.7 µM [inhibitor, single point] | Potency [17]: inconclusive: 44.7 µM [inhibitor, partial curve]
